PubChem BioAssay (NCI)
Several values for one entry are separate records, joined by “and”; a condition that tells them apart may be missing. Identical values can stand only once.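 Following 48 hours of exposure in 96-well plates, responses at five concentrations were used to interpolate endpoints linearly. The concentration for 50% growth inhibition is given as GI50. TGI: total growth inhibition.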

Tested on: NCI-H322M lung
Assay: DTP human tumour cell line panel, 48 h

Row | Structure (SMILES) | TGI | GI50
1 | C[n+]1c(-c2ccc(/C=C/C=N\NC(=O)c3ccc(C(=O)N/N=C\C=C\c4ccc(-c5cn6ccccc6[n+]5C)cc4)cc3)cc2)cn2ccccc21 | > 100 µM | 
2 | O=c1oc2ccc(I)cc2c(=O)n1-c1ccc(Cl)cc1F | 17.4 µM | 0.625 µM
3 | COc1ccc(/C(=N\NC(=S)NN)C(c2ccc(OC)cc2)C2C(=O)Oc3ccccc32)cc1 (stereo not drawn) | > 100 µM | > 100 µM
4 | COC(=O)[C@H](Cc1ccccc1)NC(=O)CCCCCCC(=O)NO | > 100 µM | 
5 | CCOC(=O)c1nnsc1NN | > 100 µM | 
6 | Cc1ccccc1C(=O)N1CCN(C(=O)c2ccccc2C)CC1 | > 100 µM | 
7 | CN1/C(=C\C=C\C2=[N+](C)c3ccccc3C2(C)C)C(C)(C)c2ccccc21 | 3.14 µM | 0.255 µM
8 | CCCCn1c(-c2ccc([N+](=O)[O-])cc2)cs/c1=N/N=C1\C(=O)Nc2ccc(Br)cc21 | > 100 µM | 
9 | O=c1cc(-c2cc(O)c(O)c(-c3c(O)cc4oc(-c5ccc(O)c(O)c5)cc(=O)c4c3O)c2)oc2cc(O)cc(O)c12 | > 25 µM | 
10 | C=C(CNCCc1ccc(O)cc1)[C@@H]1CC[C@]2(COC3CCCCO3)CC[C@]3(C)[C@H](CC[C@@H]4[C@@]5(C)CCC(NCCO)C(C)(C)[C@@H]5CC[C@]43C)[C@@H]12 (stereo partly drawn) | 2.61 µM | 1.32 µM
11 | COc1ccc(COCC[C@H](C)OC2OC(CO[Si](C)(C)C(C)(C)C)C(OC(=O)CCCN=[N+]=[N-])C(OC(=O)CCCN=[N+]=[N-])C2OC(=O)CCCN=[N+]=[N-])cc1 (stereo partly drawn) | > 100 µM | 
12 | C=C1C(=O)O[C@H]2[C@H]1CC/C(COC(=O)NCC(C)c1ccc(CC(C)C)cc1)=C\CC[C@@]1(C)O[C@@H]21 (stereo partly drawn) | 10.1 µM | 5.15 µM
13 | CC(=O)O[C@H]1CCc2c(cc(N)c3c2C(=O)C[C@]2(C)C([C@H](C)CCCC(C)C)CCC32C)C1(C)C (stereo partly drawn) | > 100 µM | 
14 | COc1cc(NC(C)=O)ccc1C(=O)NN1C(=O)/C(=C/c2ccco2)N=C1c1ccccc1 | > 50 µM | 
15 | O=C(O)[C@@H](Cc1ccc2ccccc2c1)NC(=O)n1c2ccccc2c2ccccc21 | > 100 µM | 5.68 µM
16 | CCOC(=O)c1nc2cc(C(F)(F)F)ccc2nc1Nc1ccc(C(=O)NC(C(=O)OCC)C(=O)OCC)cc1 | > 100 µM | 
17 | COC1=C(C)C(=O)c2c(c(COC(N)=O)c3n2CC(OC(C)=O)C3OC(C)=O)C1=O (stereo not drawn) | 2.74 µM | 
18 | O=c1oc2ccccc2[n+]([O-])c1-c1ccccc1 | > 100 µM | 
19 | COc1cc2c(cc1Cc1c(F)cccc1Cl)nc(-c1c(F)cccc1Cl)n2Cc1c(F)cccc1Cl | > 100 µM | 
20 | O=C(Nc1noc(-c2ccccc2)n1)c1ccccc1CNc1noc(-c2ccccc2)n1 | > 100 µM | 
21 | CCOC(=O)/C(C#N)=C\C=C(/Cl)c1ccc(Cl)cc1 | 45.3 µM | 23.4 µM
22 | CCCCN(CC)CC(C(C)=O)c1c(O)c2ccccc2oc1=O (stereo not drawn) | > 100 µM | 
23 | CC(C)(C)c1cc(C(=O)/C=C/c2ccc3c(c2)OCO3)cc(C(C)(C)C)c1O | > 100 µM | 
24 | COc1ccc2c(c1)/C(=C/c1cc(OC)c(OC)c(OC)c1)C(=O)N2 | > 100 µM | 1.53 µM

Row | Structure (SMILES) | TGI | GI50
25 | CN(C)C(=O)O[C@H]1CN[C@H](C#Cc2cc3ncnc(Nc4ccc(OCc5cccc(F)c5)c(Cl)c4)c3s2)C1 | > 25 µM | 3.67 µM
26 | Cn1c2ccccc2c(=O)c2c(O)cc3c(c21)C=CC1(CCCCC1)O3 | > 10 µM | 
27 | CCOC(=O)/C(O)=C1\C(=O)N(C)C(=O)C1c1cccc(OC)c1 (stereo not drawn) | > 100 µM | 
28 | CC(=O)/C(=C/c1ccccc1F)C(=O)c1ccccc1 | > 100 µM | 
29 | COc1ccc(CC2COc3cc(O)cc(O)c3C2=O)cc1O (stereo not drawn) | > 100 µM | 
30 | O=C(/C=C/c1ccccc1)CC(=O)CCC(=O)Nc1ccc(Cl)cc1 | > 100 µM | 
31 | CC(C)(C)C(=O)[CH-]C(=O)C(C)(C)C.CC(C)(C)C(=O)[CH-]C(=O)C(C)(C)C.CN(C)c1ccc([O-])cc1.CN(C)c1ccc([O-])cc1.[Ti+4] | > 100 µM | 74.8 µM
32 | Cc1c(C(=O)O)oc2ccc([N+](=O)[O-])cc12 | > 100 µM | 
33 | COc1ccc(C(=O)NCCN(C)C)c2nc3ccccc3nc12 | 25.7 µM | 
34 | Cc1ccc(-c2nc3nc(-c4ccc(F)cc4)nc(N4CCCNCC4)c3o2)cc1 | 2.96 µM | 1.61 µM
35 | Cc1nc(C(N)=S)sc1C(=O)/C=C/c1c(O)ccc2ccccc12 | > 100 µM | 
36 | O=[N+]([O-])c1ccc2c(c1)C1=NN(c3ccccc3)C(c3ccccc3Br)C1CCC2 (stereo not drawn) | > 50 µM | 
37 | CN(C)c1ccc(-c2ccc(-c3ccc(C(=N)N)cc3)s2)cc1 | 2.37 µM | 1.05 µM
38 | N#Cc1ccc(NC(=O)C(CC(=O)OCc2ccccc2)NC(=O)OCc2ccccc2)cc1 (stereo not drawn) | > 100 µM | > 100 µM
39 | Cc1c2c(OCC3CCCCO3)nn(C)c(=O)c2c(C)n1-c1ccccc1 (stereo not drawn) | 33.1 µM | 
40 | OCc1ccc2c(c1)CC1(Cc3ccc(/C=N/O)cc3C1)C2 (stereo not drawn) | > 100 µM | 
41 | COc1nc(C#CC(C)(C)C)nc(OC)n1 | 99.2 µM | 
42 | O=C1OCC2=C1C(c1ccccc1)c1cc3c(cc1N2CCO)OCO3 (stereo not drawn) | > 50 µM | 16 µM
43 | CCOC(=O)c1cn2c(n1)sc1cc(Cl)cc(Cl)c12 | > 100 µM | 
44 | Cn1cc(C2=C(c3cn(C4CCN(Cc5ccccn5)CC4)c4ccccc34)C(=O)NC2=O)c2ccccc21 | > 100 µM | > 100 µM
45 | O=C(c1ccncc1)C1C(=O)c2ccccc2C1C1(O)c2ccccc2CC1C(O)c1ccncc1 (stereo not drawn) | > 100 µM | 
46 | CC(C)(C)c1cc(C=C(C#N)C#N)cc(C(C)(C)C)c1O | 25.6 µM and 77.9 µM | 
47 | CN(C)CCC(=O)/C=C\c1ccccc1 | > 100 µM | 
48 | CCNC(=O)c1noc(-c2cc(C(C)C)c(O)cc2O)c1-c1ccc(CN2CCOCC2)cc1 | > 100 µM | 10.8 µM

Row | Structure (SMILES) | TGI | GI50
49 | CCOC(=O)C1SC(=Nc2ccc(Cl)cc2)N=C1C (stereo not drawn) | 44.6 µM | 
50 | CO[C@@H]1O[C@H](C(=O)c2ccccc2)[C@H]2OC(C)(C)O[C@@H]12 | > 100 µM | 
51 | FC(F)(F)c1cc(C2SCc3nc4ccccc4n32)cc(C(F)(F)F)c1 (stereo not drawn) | > 100 µM | 
52 | COc1c(O)c2c(=O)cc(OC)c3c4c(OC)cc(=O)c5c(O)c(OC)c6c(c(c1C(C(C)O)C6C(C)O)c23)c54 (stereo not drawn) | 7.33 µM | 
53 | CCOC(=O)NC(=O)c1cn(CCN2CCN(C(=O)CCCCCCCCCCC(=O)N3CCN(CCn4cc(C(=O)NC(=O)OCC)c(=O)[nH]c4=O)CC3)CC2)c(=O)[nH]c1=O | > 100 µM | 
54 | NC(=S)NN/C=C(\C=Nc1ccccc1)[N+](=O)[O-] | > 100 µM | 
55 | Cc1cc(I)cc(CN(C)CCCN2CCCC2)c1O | > 78.7 µM | 28.3 µM
56 | O=C1NCN(c2ccccc2)C12CCN(CCCN1CCN(CCOC(c3ccc(F)cc3)c3ccc(F)cc3)CC1)CC2 | 4.49 µM | 
57 | O=C(O)c1ccccc1/C=N/N=C1c2ccccc2-c2ccccc21 | > 100 µM | 
58 | O=S(=O)(CCCl)c1ccc(Cl)cc1 | 31.8 µM | 16.3 µM
59 | CCOC(=O)c1cc2c3c(c(O)c(OC)c2s1)N(C(=O)c1cc2c4c(c(O)c(OC)c2s1)N(C(C)=O)CC4)CC3 | > 100 µM | 
60 | CCCCn1c(-c2ccc(C(=O)O/N=C(\N)c3ccc4c(c3)OCO4)cc2)nc(-c2ccccc2)c1-c1ccccc1 | > 100 µM | 5.22 µM
61 | COc1cc(NCCCCCCCNC(C)C)c2nccc(C)c2c1 | 29.3 µM | 15.1 µM
62 | CCC(C(=O)C(=O)OC)P1(=O)OC(C)(C)CN1C(C)(C)C (stereo not drawn) | > 100 µM | 
63 | COc1ccc2[nH]c3c(c2c1)[C@H](C)C[C@@H]1C(=O)N(c2ccccc2)C(=O)[C@H]31 | > 100 µM | 
64 | Nc1ccc(/C=C/C(=O)NCc2cc3cc(-c4ccc(C(=O)N5CCC(F)(F)CC5)cc4)cc(-c4ccc(F)cc4)c3o2)cn1 | > 100 µM | > 100 µM
65 | CNC(=O)c1nn(C)c2c1C(C)(C)Cc1cnc(Nc3ccc(N4CCN(C)CC4)cc3)nc1-2 | > 10 µM | 0.431 µM
66 | O=C(Nc1ccc(Cl)c(Cl)c1)NS(=O)(=O)c1cnccc1Oc1ccc(F)cc1 | 73.5 µM | 3.53 µM
67 | c1c[nH]c(CN2CCOCC2)n1 | > 100 µM | 
68 | COC(=O)C1(Cc2ccc3c(c2)CCC3)Cc2ccccc2C1 | > 100 µM | 
69 | CC(=O)OCC1OC(N2C(=O)C(=O)c3ccccc32)C(OC(C)=O)C(OC(C)=O)C1OC(C)=O (stereo not drawn) | > 100 µM | 
70 | COC(=O)C1(C)Cc2cc(OC(C)=O)c(OC(C)=O)cc2N1 (stereo not drawn) | > 93.8 µM | > 54.5 µM
71 | O=c1[nH]c(Nc2cccc(CO)c2)nc2nc[nH]c12 | > 100 µM | 
72 | CN(C)CC1CCC(CN(C)C)C1=O (stereo not drawn) | 35.4 µM | 

Row | Structure (SMILES) | TGI | GI50
73 | COc1cc(/C=C/C=C2\CC/C(=C\C=C\c3ccc(O)c(OC)c3)C2=O)ccc1O | > 100 µM | 
74 | COCCOCCOC1=CC(=O)c2c(O)ccc(O)c2C1=O | 2.94 µM | 
75 | O=C1CSC2=NC3=C(COC/C3=C\c3ccc(Br)cc3)C(c3ccc(Br)cc3)N12 (stereo not drawn) | > 100 µM | 
76 | COc1ccc(C(=O)c2ccc([As]=O)cc2)cc1 (stereo not drawn) | 0.268 µM | 0.131 µM
77 | C=C1C[C@@H]2CC[C@@]34C[C@H]5O[C@H]6[C@@H](O3)[C@H]3O[C@H](CC[C@@H]3O[C@H]6[C@@H]5O4)CC(=O)C[C@@H]3[C@@H](OC)[C@@H](C[C@H](O)CN)O[C@H]3C[C@H]3O[C@@H](CC[C@@H]1O2)C[C@@H](C)C3=C | > 100 µM | < 0.01 µM
78 | CN1CCN(c2cc3nsnc3c3nsnc23)CC1 | > 10 µM | 
79 | COc1cc2c(cc1OC)-c1cc3ccccc3c(=O)n1CC2 | > 100 µM | 
80 | CC(C)OC(=O)OCSc1ccccc1N=Cc1cccc([N+](=O)[O-])c1 | > 10 µM | 
81 | O=C(O)c1ccc(C2C(=O)N[C@@H]3CCC[C@H]23)cc1 (stereo partly drawn) | > 100 µM | 
82 | COc1cc2c(c(O)c1OC)C(=O)C(Cc1ccc(O)cc1)CO2 (stereo not drawn) | > 100 µM | 
83 | O=c1c(F)cn(Cc2ccccc2CCl)c(=O)n1Cc1ccccc1CCl | 7.11 µM | 2.49 µM
84 | O=C(/C=C/c1ccccc1)c1ccc(NCc2nc3ccccc3[nH]2)cc1 | 24.6 µM | 
85 | C=CC(OCC)(OCC)OCC | > 100 µM | 
86 | CC(C)(Oc1ccc(/C=C/C(=O)c2ccc(Cl)cc2)cc1)C(=O)Nc1c(Cl)cccc1Cl | > 100 µM | 
87 | COC(=O)c1cc(C#N)[nH]c1-c1cc(Br)cs1 | 47.5 µM | 
88 | C=Cc1ccccc1C1(O)C=CC(OC)(OC)C=C1 | 23.6 µM | 
89 | CO[C@]12C[C@H](CNC(=O)c3ccc[nH]3)O[C@H]1NC(=O)N2 | > 100 µM | 
90 | COC(=O)/C(C#N)=C(/NCCN)Nc1ccccc1 | > 100 µM | 
91 | NS(=O)(=O)c1cccc(NC(=S)NC(=O)Nc2ccc(Cl)c(Cl)c2)c1 | > 100 µM | 
92 | CN(C)CCNC(=O)Cn1ccc(=O)c2c([N+](=O)[O-])cccc21 | > 100 µM | 
93 | O=[N+]([O-])c1ccc(Sc2c3ccccc3nc3cc(Cl)ccc23)cc1 | > 100 µM | > 100 µM
94 | C[N+](C)(C)CC1CCCCC1O (stereo not drawn) | > 100 µM | 
95 | C1=C\SS/C=C\SS/1 | > 100 µM | 
